Values joined by “and” are separate entries in the source; they are usually repeats but may differ in a detail not shown here. Equal values may be shown once. Where a name gives a salt, the structure may show the parent alone. ± gives the standard deviation of the averaged measurements. Whole data set: some 2,600 compounds, median “total cell number (DAPI+ nuclei) relative to DMSO vehicle control” near -1.4, cut for the lowest 2% near -23. Some of the results follow.
These compounds were tested on jimpy (Plp1 jimpy) mouse iPSC-derived oligodendrocyte progenitor cells (assay: total cell number (DAPI+ nuclei) relative to DMSO vehicle control (SDs above negative control mean); higher = more surviving cells). Details: 10 µM; 3 days.
In the case of `CC(=O)N1CCN(c2ccc(OCC3COC(Cn4ccnc4)(c4ccc(Cl)cc4Cl)O3)cc2)CC1` (configuration not stated) [Ketoconazole], the total cell number is reported as 1.11 ± 6.6.
With `Cc1[nH]c(/C=C2\C(=O)Nc3ccccc32)c(C)c1CCC(=O)O` [TSU-68 (SU6668, Orantinib)] the total cell number was -0.233.
Compound `CCN(CC)CCCC(C)Nc1c2ccc(Cl)cc2nc2ccc(OC)cc12` (configuration not stated) [Quinacrine dihydrochloride] has a total cell number of -10.2.
For `CCN(CC)CCCC(C)Nc1c2ccc(Cl)cc2nc2ccc(OC)cc12` (configuration not stated) [Quinacrine 2HCl], the total cell number was -14.5.
Work on `CC(C)(C)NS(=O)(=O)c1cncc(-c2cc(F)c3nc(N)nn3c2)c1` yielded a total cell number of -0.735.
For `O=C(O)P(=O)(O)O` [Foscarnet Sodium], the total cell number was -2.79.
In the case of `COc1cc2ncnc(Nc3ccc(Cl)cc3F)c2cc1OC`, the total cell number is reported as -8.14.
`N#Cc1ccc2[nH]c(O)c(-c3ccc(CN4CCOCC4)cn3)c2c1` gave a total cell number of -10.6.
`Cc1ccc(C(=O)NCCCCCC(=O)Nc2ccccc2N)cc1` was tested, and the total cell number was -9.09.
`CNc1cc(NS(=O)(=O)c2ccc(N)cc2)nc(NC)n1` [Ro 04-6790 dihydrochloride] was tested, and the total cell number was 0.996.
In the case of `Oc1ccc(Nc2nc(-c3ccc(Cl)cc3)cs2)cc1`, the total cell number is reported as -14.4.
`CCN(CC)CCn1c(=O)c(Cc2ccc(OC)cc2)nc2ccccc21` [Caroverine hydrochloride] showed a total cell number of -1.32.
In the case of `CO[C@H]1C[C@@H]2CC[C@@H](C)[C@@](O)(O2)C(=O)C(=O)N2CCCC[C@H]2C(=O)O[C@H]([C@H](C)C[C@@H]2CC[C@@H](O)[C@H](OC)C2)CC(=O)[C@H](C)/C=C(\C)[C@@H](O)[C@@H](OC)C(=O)[C@H](C)C[C@H](C)/C=C/C=C/C=C/1C` [Rapamycin (Sirolimus)], the total cell number is reported as -8.86.
`Nc1nc2ccc(Cl)cc2n2c(-c3ccccc3)nnc12` showed a total cell number of -0.857.
With `C=CCc1cc(OC)c(O)c(C(=O)NCCO)c1` [Alibendol] the total cell number was -1.51.
With `COc1cc2c(CCNC(C)=O)c[nH]c2cc1O` [6-Hydroxymelatonin] the total cell number was -0.826.
`C#C[C@]1(O)CC[C@H]2[C@@H]3CCC4=CC(=O)CC[C@@H]4[C@H]3CC[C@@]21C` [Norethindrone] showed a total cell number of -1.09.
For `C#C[C@]1(OC(C)=O)CC[C@H]2[C@@H]3CCC4=C[C@@H](OC(C)=O)CC[C@@H]4[C@H]3CC[C@@]21C` [Ethynodiol diacetate], the total cell number was -0.24.
Work on `CC(C)[C@H](C(=O)Nc1ccc(C(=O)NO)cc1)c1ccccc1` yielded a total cell number of -10.8.
With `Nc1ccc(S(=O)(=O)Nc2ncccn2)cc1` [Sulfadiazine] the total cell number was 2.06.
`Nc1ccc(O)c(C(=O)O)c1` [Mesalamine] gave a total cell number of -13.
`Clc1ccccc1CN1CCc2sccc2C1` [Ticlopidine HCl] gave a total cell number of 2.96.
With `CN(C)CCCN1c2ccccc2CCc2ccc(Cl)cc21` [Clomipramine hydrochloride] the total cell number was -8.36.
Work on `CN(C)CCCN1c2ccccc2CCc2ccc(Cl)cc21` [Clomipramine HCl] yielded a total cell number of -10.1.
Work on `COC(=O)N1CCN(Cc2cccc(NC(=O)Nc3ccc(C)nc3)c2F)CC1` yielded a total cell number of 0.763.
`O=C1NC(=O)/C(=C\c2ccc3nccnc3c2)S1` gave a total cell number of -1.42.
Work on `COC(=O)C1=C(C)NC(C)=C(C(=O)OC)C1c1ccccc1[N+](=O)[O-]` [Nifedipine] yielded a total cell number of -1.54 ± 0.42.
In the case of `CC(C)NC[C@H](O)COc1ccc(CCOCC2CC2)cc1` [Levobetaxolol HCl], the total cell number is reported as 0.39.
`COc1cc2c(cc1O)CC[C@@H]1[C@@H]2CC[C@]2(C)[C@@H](O)CC[C@@H]12` [2-methoxyestradiol] was tested, and the total cell number was -5.21.
`COc1cc2c(cc1O)CC[C@@H]1[C@@H]2CC[C@]2(C)[C@@H](O)CC[C@@H]12` [2-Methoxyestradiol (2-MeOE2)] was tested, and the total cell number was -10.2.
`CNC(=O)[C@H]1O[C@@H](n2cnc3c(NCc4ccc(N)cc4)ncnc32)[C@H](O)[C@@H]1O` gave a total cell number of -0.313.
`COc1cc(N2CCN(C)CC2)ccc1Nc1nccc(-c2cn(C)c3cnccc23)n1` gave a total cell number of -15.9.
In the case of `O=C(O)Cc1ccccc1Nc1c(Cl)cccc1Cl` [Diclofenac Sodium], the total cell number is reported as -1.22.
`O=C(O)Cc1ccccc1Nc1c(Cl)cccc1Cl` [Diclofenac Potassium] showed a total cell number of -0.338.
With `O=C(O)Cc1ccccc1Nc1c(Cl)cccc1Cl` [Diclofenac sodium] the total cell number was -2.2.
In the case of `O=C(O)Cc1ccccc1Nc1c(Cl)cccc1Cl` [Diclofenac Diethylamine], the total cell number is reported as 0.298.
`C[C@@H](c1ncncc1F)[C@](O)(Cn1cncn1)c1ccc(F)cc1F` [Voriconazole] gave a total cell number of 0.679 ± 1.6.
For `C[C@@H]1CC(=O)NN=C1c1ccc(NN=C(C#N)C#N)cc1` [Levosimendan], the total cell number was -1.92.
Compound `CNC(=O)c1ccc2cc([C@@]3(O)CCn4cncc43)ccc2c1` [TAK-700 (Orteronel)] has a total cell number of 0.9.
For `C[N+](C)(C)CCO.[Br-]` [Choline bromide], the total cell number was -1.23.
With `N=c1ccn2c(n1)O[C@H]1[C@H](O)[C@@H](CO)O[C@H]12` [Ancitabine hydrochloride] the total cell number was -5.3.
`N=c1ccn2c(n1)O[C@H]1[C@H](O)[C@@H](CO)O[C@H]12` [Cyclocytidine HCl] was tested, and the total cell number was -5.97.
Compound `CCCCCCCC/C=C\CCCCCCCC(=O)NCc1ccc(O)c(OC)c1` [Olvanil] has a total cell number of -4.4.
`CC(=O)Oc1cc(C(F)(F)F)ccc1C(=O)O` [Triflusal] was tested, and the total cell number was -0.71 ± 1.2.
For `CC(C)Cc1ccc([C@H](C)C(=O)O)cc1` [S(+)-Ibuprofen], the total cell number was 0.237.
`CS(=O)(=O)c1ccc([C@@H](O)[C@@H](CO)NC(=O)C(Cl)Cl)cc1` [Thiamphenicol] showed a total cell number of 0.863.
`Cc1cncc(CN2CCC(=C3c4ccc(Cl)cc4CCc4cccnc43)CC2)c1` [Rupatadine Fumarate] was tested, and the total cell number was -10.9.
`O=c1[nH]cc(F)c(=O)[nH]1` [Fluorouracil (5-Fluoracil, 5-FU)] was tested, and the total cell number was -22.3.
Compound `O=c1[nH]cc(F)c(=O)[nH]1` [5-Fluorouracil] has a total cell number of -9.71.
With `O=c1ncn2nc(Sc3ccc(F)cc3F)ccc2c1-c1c(Cl)cccc1Cl` the total cell number was -3.36.
Work on `C[C@]12C=CC(=O)C=C1CC[C@@H]1[C@@H]2[C@@H](O)C[C@@]2(C)[C@H]1CC[C@]2(O)C(=O)CO` [Prednisolone] yielded a total cell number of 5.42.
Compound `Clc1ccc2c(c1)N=C(N1CCNCC1)c1ccccc1N2` [N-Desmethylclozapine] has a total cell number of -5.78.
In the case of `CC(C)CCN1c2nc(Nc3cc(F)c(O)c(F)c3)ncc2N(C)C(=O)C1C` (configuration not stated), the total cell number is reported as -9.12.
`O=C1NC(=O)/C(=C/c2ccc(-c3ccc(F)cc3O)o2)S1` was tested, and the total cell number was -4.56 ± 0.43.
In the case of `Cc1cnc(Nc2ccc(N3CCN(C)CC3)cc2)nc1Nc1cccc(S(=O)(=O)NC(C)(C)C)c1`, the total cell number is reported as -12.1.
`OC[C@@H](O)[C@@H](O)CO` [Erythritol] was tested, and the total cell number was 0.39.
Work on `NC1(c2ccc(-c3nc4ccn5c(=O)[nH]nc5c4cc3-c3ccccc3)cc2)CCC1` yielded a total cell number of -25.6.
`Cc1ccccc1/C=C/C1=NCCN1` [Metrazoline oxalate] gave a total cell number of -2.7.
For `Cc1cccc(-c2[nH]c(C(C)(C)C)nc2-c2ccc3nccnc3c2)n1`, the total cell number was -2.87 and -3.33.
`NC(=O)c1noc([C@H](CCCC2CCCCC2)CC(=O)NO)n1` gave a total cell number of -2.62.
Compound `CC[N+](CC)(CC)CC` [Tetraethylammonium chloride] has a total cell number of 0.407.
With `COc1ccc(CCN(C)CCc2ccc(OC)c(OC)c2)cc1OC` [YS-035 hydrochloride] the total cell number was 0.198.
In the case of `C[C@H](N[C@@H](CCc1ccccc1)C(=O)O)C(=O)N1CCC[C@H]1C(=O)O` [Enalaprilat Dihydrate], the total cell number is reported as -0.652.
With `C[C@H](N[C@@H](CCc1ccccc1)C(=O)O)C(=O)N1CCC[C@H]1C(=O)O` [Enalaprilat dihydrate] the total cell number was -1.04.
In the case of `CCN(CC)CCNC(=O)c1ccc(NS(C)(=O)=O)cc1` [Sematilide monohydrochloride monohydrate], the total cell number is reported as -0.282.
`NC(=O)N1CCC(CC(=O)N2CCC([C@H]3c4ncc(Br)cc4CCc4cc(Cl)cc(Br)c43)CC2)CC1` [Lonafarnib] gave a total cell number of -9.54.
In the case of `CN(C)[C@@H]1C(O)=C(C(N)=O)C(=O)[C@@]2(O)C(O)=C3C(=O)c4c(O)cccc4[C@@](C)(O)[C@H]3C[C@@H]12` [Tetracycline HCl], the total cell number is reported as 1.62.
For `O=C(O)C1CCCNC1` (racemic) [(±)-Nipecotic acid], the total cell number was -1.95.
`O=C(Nc1cc(C(F)(F)F)cc(C(F)(F)F)c1)c1cc(Cl)ccc1O` showed a total cell number of -4.55.
Compound `CC(C)(N)c1ncc(-c2ccc(OC(F)(F)F)cc2)[nH]1` has a total cell number of -3.28.
`O=C1/C(=C/c2cccs2)CC/C1=C\c1cccs1` showed a total cell number of -1.85.
Work on `COCCCC/C(=N\OCCN)c1ccc(C(F)(F)F)cc1` [Fluvoxamine maleate] yielded a total cell number of -4.97 ± 5.2.
In the case of `COC(=O)[C@H](c1ccccc1Cl)N1CCc2sccc2C1` [Clopidogrel], the total cell number is reported as 3.22.
For `C[C@]12CCC(=O)C=C1CC[C@@H]1[C@@H]2C(=O)C[C@@]2(C)[C@H]1CC[C@]2(O)C(=O)CO` [Cortisone], the total cell number was -1.47.
`O=C(COc1ccc(C(=O)c2ccccc2)cc1)NC1CCN(Cc2ccccc2)CC1` [AdipoRon] was tested, and the total cell number was 1.46.
`CC1(C)CCC(c2ccc(Cl)cc2)=C(CN2CCN(c3ccc(C(=O)NS(=O)(=O)c4ccc(N[C@H](CCN5CCOCC5)CSc5ccccc5)c(S(=O)(=O)C(F)(F)F)c4)cc3)CC2)C1` [ABT-263 (Navitoclax)] showed a total cell number of -16.7.
`O=C(NOCC1CC1)c1ccc(F)c(F)c1Nc1ccc(I)cc1Cl` gave a total cell number of -11.8.
Work on `Nc1nc(F)nc2c1ncn2[C@@H]1O[C@H](COP(=O)(O)O)[C@@H](O)[C@@H]1O` [Fludarabine Phosphate] yielded a total cell number of -8.7.
`CCOC(=O)N1CCC(=C2c3ccc(Cl)cc3CCc3cccnc32)CC1` [Loratadine] showed a total cell number of -0.828 ± 1.3.
`Oc1c(Br)cc(Br)c2cccnc12` [Broxyquinoline] was tested, and the total cell number was 0.775.
`Nc1ccc2ncnc(NCCc3ccc(Oc4ccccc4)cc3)c2c1` was tested, and the total cell number was -11.
Work on `CN1CCN(S(=O)(=O)c2ccc(-c3cnc(N)c(C(=O)Nc4cccnc4)n3)cc2)CC1` yielded a total cell number of -11.
